# Results: PubChem BioAssay (NCI)
# The source holds several records for some structures; these can differ, active in one and inactive in another.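 Compound tested at a single concentration for 48 hours in 96-well plates; a percent growth value below 10 was scored as active.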 A number of entries come with more than one value. Only these are listed. The source may hold further records. This drug was run again and again over the years, at the concentration stated with the values; each value is one run. Counts like (3×) stand for listed records that agree.
# What was measured:
# [1] = system: DU-145 prostate; test: NCI-60 one-dose screen, 48 h (100 = growth as untreated, 0 = no growth, -100 = all killed)
# [2] = system: MDA-MB-231 breast; test: as above; conditions: 0.25 µM
compound,measurement,setting,value
COc1cccc2c1C(=O)c1c(O)c3c(c(O)c1C2=O)C[C@@](O)(C(=O)CO)C[C@@H]3OC1CC(N)C(O)C(C)O1 (stereo not given in full),growth,"[1]; 0.25 µM, runs of 2021","inactive: 25.7, 38.1, 27.4 (2×), 38, 32.4 (2×), 30.6, 26.4, 26.2 (2×), 25.5, 27.2 (2×), 21.3, 24.1 (2×), 25.1, 21.4, 15.7, 15.6, 21.6 (2×), 20.8, 31, 22.5, 26.1, 17.6 (2×), 18.1, 25, 27.7, 31.6, 31.2, 20.4, 37.4, 22.6, 24.4, 20, 22.8 (2×), 29.9, 26.8, 18.3 (2×), 29.3, 16.6%"
same,growth,"[1]; 0.25 µM, runs of 2022","inactive: 20.5, 25.6, 11, 11.2, 23.3, 15.6, 18.8, 20.8, 21.6, 19.3, 30.7, 39.8, 25.7, 21.9, 66.1, 78.7, 23.9, 74.4, 53.5, 86.1, 25, 22.6, 26.7, 28, 28.6% and active: 8.15%"
same,growth,"[1]; 25 µM, runs of 1993","active: 2.5, 8.54, 2.66, 1.57, 3.88, -11.7, 6.56, 5.73, 4.99, -17.2 (2×), -30.8, -7.18, 5.26, -0.867, 7.33, -35.5 (2×), 1.85, 2.8, -26.2, -18.1, 7.96, -9.71, -2.81, -31.9, -29, -27.5, 8.47, -13.2, 4.88, -20.1, -18.3, 1.27, -28.7 (2×), 5.42, -0.453, 1.8, 1.3, -13.6, -30.6, -8.66% and inactive: 11.7, 12, 10.9, 14%"
same,growth,"[1]; 25 µM, runs of 1994","inactive: 18.3, 99.4, 11.1, 15.7, 10.5 (2×), 103, 13.4, 21.6, 10.4, 15.5% and active: -3.37, -3.58, -26.5, 6.15, -5.04, 1.03, 6.43, -19.2, 8.65, 1.28, 8.73, -2.83, -18.9, -22.4, -7.04, -4.16, 9.28, -5.69, -1.17, -6.41, 6.13, -2.55, 8.72, 3.96%"
same,growth,"[1]; 25 µM, runs of 1995","active: 3.08, -8.48, -23.4, -1.75, -47.5, -7.26, -7.82, -6.3, 5.74, -3.69, 4, 6.9, -0.956, -59.6, 0.126, 3.02, -18.2, -19.4, -7.66, -12.2, 4.97, -9.92, -2.45, 3.52, -23.8, -13.2, 1.02, 9.25, 5.32, 0.313, -0.928, -34.6% and inactive: 13.4, 10.1, 13.2, 10.9, 15%"
same,growth,"[1]; 25 µM, runs of 1996","active: -15.7, 2.96, -16.8, -24.2, -25.6, 2.31, 1.77, 2.91, -12.1, -37.5, -7.48, 1.76 (2×), -2.91, -13.3, 2.85, 8.33, -19.4, -23.5, 0.275, -6.01, 3.71, 0.36, -9.05, -26.8, -2.78, 3.67, -27.7, -6.59, -14.3, -5.63, -23.8, -47.3, -17.9, 4.52, 5.5, 4.89, -15.4, -8.43, 3.1, -28.6, -42.3% and inactive: 11.5, 13.8, 15.1 (2×), 20.7, 36.9, 17.6, 18.3, 18, 12.3, 13.2%"
same,growth,"[1]; 25 µM, runs of 1997","active: -24.3, -2.61, -12.3, 7.21, -29.6, -12.4, -11.7, 2.14, 5.61, 6.34, -24.9, 6.85, -1.08, -16.9, -16.5, 4.99, -11.1, -10.6, -11, -33.2, -8.04, 0.0595, 1.39, 1.36, -3.29, 1.19, -18.1, 5.38, 4.94, -6.69, -14.4, -11.9, -8.93% and inactive: 14.3, 10.8, 20.5, 27.1, 12.6, 12, 15.7, 13.6, 22.1%"
same,growth,"[1]; 25 µM, runs of 1998","active: -23.4, 4.44, 2.25, 0.163, -0.388, -8.68, -6.93, 4.98, -35.9, -3.43, 7.59, 7.67, 7.01, 7.91, -20.6, -2.23, 1.97, -12.5, 4.41, 9.76, -45, -22.6% and inactive: 10.3%"
same,growth,"[1]; 25 µM, runs of 1999","active: -25.5, 6.37, -8.24, 2.63, -55.4, -27, -55.5, -40.3, -54.9, -42.9, 6.32, 1.72, -44.7, -100, -45.9, -63.7% and inactive: 11.2%"
same,growth,"[1]; 25 µM, runs of 2000","active: 0.253, -100, -48.1, -39.5%"
same,growth,[2]; runs of 2006,"inactive: 71.6%, 76.5%"
same,growth,[2]; runs of 2007,"inactive: 69.7, 79.3, 76.8, 73.7, 86.5, 78.9, 76.6, 92.8, 84.6, 78, 78.2, 61.8, 60.5, 27.4, 26.1, 52.5, 87.2, 92.9, 76.1, 105, 96.9, 95.8, 93.7 (2×), 94, 106, 98.1, 84.3, 83.4, 76.9, 27.8, 95.5, 87.5, 87.4, 74.8, 82.7, 74.7, 97.3, 87.6, 88.6, 103%"
same,growth,[2]; runs of 2008,"inactive: 80.5, 86.5, 73.9, 71.6, 86.4, 80.8, 73.5 (2×), 77.1, 87.9, 83.8, 91.9, 100 (2×), 96.2, 59.3, 67, 63.4, 69.9, 65.4, 67.3, 53, 60, 57.4, 58.2, 60.4, 97.9, 69.8, 94.1, 94.7, 72.5, 66, 48.6, 66.6, 47, 72, 74, 45.3, 61.7, 73.6, 87.7, 66.2, 81.2, 84.2, 68.4, 70.4, 79.5, 69.6, 89.1, 78.7, 64.2, 82.4%"
same,growth,[2]; runs of 2009,"inactive: 63.1, 68.7, 68.9 (2×), 59.7, 71.6, 73.4, 86, 92.4, 74.6 (3×), 79.4, 84.1, 80.1 (2×), 83.3, 80.2, 71.9, 79.9, 72.7, 79.6 (2×), 80.4, 85.2, 61.3, 71.7, 76.9, 74.2 (2×), 66.1, 67, 73.3, 78.8, 83.5, 99.2, 86.6, 70.5, 89.7, 78.5, 97, 85.7, 54.5, 59.4, 69.6, 76.7, 75 (2×), 80.7, 82.3, 67.8, 70.7, 65, 71.2, 76.1, 56.6, 91.1, 105, 76, 78.1, 97.6, 82.4, 73.6, 91.6, 92.6, 76.4, 87.2, 83.8, 78.3%"
same,growth,[2]; runs of 2010,"inactive: 77.7, 79.5, 87.2, 72.4 (2×), 63.3, 76.6 (2×), 74, 92.5, 98.6, 80.1 (2×), 87.8, 96.4, 86.7, 76.8, 88.3, 80.3, 74.6, 78.9, 71.3, 75.8, 78.4, 57.1, 76.5 (2×), 79.2 (2×), 60.9, 81.8, 83.5, 81.4, 94.7, 75.7, 79.7, 80.2, 89.2, 80, 94.5, 80.6, 86 (2×), 91, 90.2, 96.2, 90.1, 97, 104, 85.6, 85.3, 93.2%"
